T1: murine Ang-2 (murine, UniProt O35608 19-496, limits assumed)
T1 construct: also called mAng-2
T1 sequence (looked up): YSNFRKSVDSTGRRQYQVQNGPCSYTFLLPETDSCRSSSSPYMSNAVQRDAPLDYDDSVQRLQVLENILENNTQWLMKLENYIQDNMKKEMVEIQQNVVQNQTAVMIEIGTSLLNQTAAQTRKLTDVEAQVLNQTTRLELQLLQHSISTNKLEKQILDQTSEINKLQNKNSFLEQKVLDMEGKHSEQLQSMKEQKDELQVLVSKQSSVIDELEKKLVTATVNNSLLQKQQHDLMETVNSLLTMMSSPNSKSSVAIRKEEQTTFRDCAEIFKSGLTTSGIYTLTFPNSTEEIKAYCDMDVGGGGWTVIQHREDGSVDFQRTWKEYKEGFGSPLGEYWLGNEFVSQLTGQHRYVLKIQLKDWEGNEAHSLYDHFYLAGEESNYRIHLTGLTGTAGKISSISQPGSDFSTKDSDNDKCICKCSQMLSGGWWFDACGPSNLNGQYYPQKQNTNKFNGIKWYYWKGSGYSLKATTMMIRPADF

T2: human Ang-2 (human, UniProt O15123 19-496, limits assumed)
T2 construct: also called hAng-2; huAng-2
T2 sequence (looked up): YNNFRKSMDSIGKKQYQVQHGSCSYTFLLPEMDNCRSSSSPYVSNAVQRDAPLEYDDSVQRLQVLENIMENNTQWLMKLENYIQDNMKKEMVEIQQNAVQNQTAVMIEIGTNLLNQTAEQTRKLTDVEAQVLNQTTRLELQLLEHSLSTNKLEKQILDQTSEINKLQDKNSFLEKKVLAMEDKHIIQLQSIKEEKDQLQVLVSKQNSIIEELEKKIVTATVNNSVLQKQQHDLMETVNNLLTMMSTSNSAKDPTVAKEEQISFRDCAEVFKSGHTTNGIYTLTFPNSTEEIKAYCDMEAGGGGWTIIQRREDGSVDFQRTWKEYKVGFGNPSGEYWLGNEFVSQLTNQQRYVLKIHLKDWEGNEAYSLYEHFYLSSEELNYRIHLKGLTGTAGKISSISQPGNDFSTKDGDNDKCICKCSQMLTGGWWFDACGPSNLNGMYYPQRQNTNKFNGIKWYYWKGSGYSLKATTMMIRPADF


How the values were obtained:
murine Ang-2 = target: T1, murine Ang-2; test: neutralization ELISA; Tie-2-Fc on coated mAng-2
human Ang-2 = target: T2, human Ang-2; test: neutralization ELISA; Tie-2-Fc on coated hAng-2

IC50 (murine Ang-2)	IC50 (human Ang-2)	Binder
0.8 nM	0.65 nM	2xL1 (N) (Fc fusion, Peptibody) MGAQKFNPLDELEETLYEQFTFQQGGGGGGGKFNPLDELEETLYEQFTFQQLEGGGGG[human IgG1 Fc not written out]
1 nM	0.9 nM	2xL1 (C) (Fc fusion, Peptibody) [human IgG1 Fc not written out]GGGGGAQKFNPLDELEETLYEQFTFQQGGGGGGGKFNPLDELEETLYEQFTFQQLE

From patent US20070225221A1 (published 2007)
